According to the supplement of paper PMC3334620:
In all, about 33,000 sequences were measured (“E-score (-0.5 to 0.5)”: median about -0.021, highest 2% from about 0.32 on). The list shows a part of the results.

Each sequence was assayed against T1, Zap1 (UniProt P47043) (assay: PBM E-score (8-mer binding enrichment) (E-score (-0.5 to 0.5)); higher = stronger / more preferred TF binding; most listed sequences are background and not binding sites). Details: protein concentration: 200 nM; construct: GST-full length.
T1 sequence: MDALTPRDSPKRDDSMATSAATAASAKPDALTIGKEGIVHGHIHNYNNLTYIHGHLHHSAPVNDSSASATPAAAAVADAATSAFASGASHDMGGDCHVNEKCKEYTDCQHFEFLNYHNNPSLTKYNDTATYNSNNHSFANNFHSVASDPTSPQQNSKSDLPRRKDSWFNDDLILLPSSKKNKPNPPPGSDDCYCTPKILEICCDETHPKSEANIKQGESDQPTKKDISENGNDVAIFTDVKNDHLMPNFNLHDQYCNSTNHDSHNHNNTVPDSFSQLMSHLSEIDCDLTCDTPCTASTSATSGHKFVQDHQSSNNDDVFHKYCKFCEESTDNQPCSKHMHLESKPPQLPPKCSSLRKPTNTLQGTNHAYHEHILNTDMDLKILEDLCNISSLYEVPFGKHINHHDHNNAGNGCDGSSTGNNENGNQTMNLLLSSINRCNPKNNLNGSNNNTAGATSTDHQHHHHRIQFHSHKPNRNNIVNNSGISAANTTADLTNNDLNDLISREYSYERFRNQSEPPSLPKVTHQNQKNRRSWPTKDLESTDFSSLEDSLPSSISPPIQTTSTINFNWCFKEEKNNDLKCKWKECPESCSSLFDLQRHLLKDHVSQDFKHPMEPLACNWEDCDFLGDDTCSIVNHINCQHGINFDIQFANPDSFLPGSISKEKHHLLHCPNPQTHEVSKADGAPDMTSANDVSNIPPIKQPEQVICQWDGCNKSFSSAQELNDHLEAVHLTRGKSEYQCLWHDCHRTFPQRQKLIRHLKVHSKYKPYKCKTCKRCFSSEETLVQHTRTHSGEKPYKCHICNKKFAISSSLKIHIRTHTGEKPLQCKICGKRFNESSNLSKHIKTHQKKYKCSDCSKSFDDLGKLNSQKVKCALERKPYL
Procedure: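 Universal 'all 10-mer' protein binding microarrays (Agilent AMADID 015681) probed with GST-tagged S. cerevisiae TFs (full-length or DBD) made by in vitro transcription/translation (PURExpress), about 100-200 nM. Bound TF was detected with fluorescent anti-GST. Each ungapped 8-mer (which stands for itself and its reverse complement) is scored by the PBM enrichment score (E-score), a modified Wilcoxon-Mann-Whitney statistic from -0.5 to +0.5, computed with the Universal PBM Analysis Suite. Scale: above 0.35 generally sequence-specific binding.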

Sequence	PBM E-score
CAATTACC	0.249
ATCTAAAT	0.136
CTTCGGTC	0.136
CTTTCGCA	0.0116
AACTAAAC	0.181
CGCCGGAG	-0.138
CAGGAGGC	-0.133
GCCATCGA	-0.0273
CACGAGGC	0.144
CGGCAAAA	-0.0785
GCAAAAGC	-0.219
CGGTCGTA	-0.262
ACGAGGCA	0.115
CAAGGTAG	0.303
GGGGTCCA	0.0229
ACGGATAG	0.0705
GGAACTGA	0.0127
ACGGCCGA	-0.005
CAGCGTCG	-0.209
CCAGAGCC	-0.0556
GACTAATA	0.0413
CGCTTCTC	-0.289
ATGTAAGG	0.153
CTGGCCAC	0.0644
ACCTGTCC	-0.123

Sequence	PBM E-score
GATCTATA	-0.026
CAAACCCG	-0.043
AGTTAGCC	-0.0837
TAGAAATA	0.253
TGGTCGAA	-0.229
AGTGAACA	0.0956
GTTGTTGA	0.16
CGCTTTAG	-0.136
GATTTGTA	0.187
AGAATGCC	-0.0954
GAAATGAC	0.103
AATATGCG	-0.131
AATTTTGC	-0.0522
AAGCCCTG	-0.181
GCAGGACC	-0.0212
GCCGGAGC	-0.21
CCCATTCG	0.0172
CCACTATA	0.121
GTTTCCGA	0.0406
CGCTGGCA	-0.0467
CAGCATCG	-0.198
AGGGATTC	-0.108
CCATATGC	-0.0353
CCTATTAG	0.00905
CCCCATAA	0.197

Sequence	PBM E-score
AGTTTGCA	-0.0409
GCGCCATA	0.0673
AAATGCAG	0.0474
TCAGGGAA	0.0386
TCTTGCCA	-0.149
CGTCGTAA	-0.082
AATGGGTC	0.214
CACAGATC	-0.0859
CCGATCCC	-0.261
GGCACGAC	-0.0477
AAGATTGG	0.00145
AAATTCTG	0.0992
CAACTTCC	0.0743
ACCTAGTG	-0.0146
CACAGCTC	-0.196
AGAGACTA	-0.14
CATGTGGG	0.0729
AACGGTTC	0.107
CACAGTGA	0.0447
ACCTGTTC	0.0688
AAAGACAA	0.0575
CCGGCAAA	-0.0539
GTAATAAA	0.216
ACACCATC	-0.13
AGCACAAT	0.0553

Sequence	PBM E-score
GTCAGTTA	0.0703
ACCGACGT	-0.084
GCACGTTA	-0.116
ATCTACTG	0.079
CCCAGGCG	-0.0421
CTCTTCTC	-0.237
ACTTGCTC	-0.197
CATTCACA	0.0556
ACCATAAT	0.255
CATGTTTA	0.0879
AAATGTTC	0.0916
AACCCATG	0.262
CTTTGAGA	0.0827
ATTCCGCA	-0.00942
CCCCCTTC	-0.372
CGTTACGC	-0.0139
CAACATTC	-0.167
TGCCACAA	0.151
CTAAAAGC	-0.179
CAAAATGG	0.182
CCCGAACG	0.124
AGCGCTTC	-0.171
CACTTGGG	0.0892
ACCCGGGT	0.317
TAACGGAA	0.104

Sequence	PBM E-score
AAGAGCAT	-0.107
ACATGGTG	0.062
CTCGAGGA	-0.0456
ACGGGACC	-0.175
ATGGCAAG	-0.147
AGTATCAG	-0.2
CTGATCCC	-0.303
CTACATAG	0.00113
CCCCTCGG	0.34
AAGCTCAC	-0.16
AGATGGCT	-0.157
ACCACGAC	0.18
GCTTGCGA	0.0401
ATTCATTG	0.0157
AGCGTAGA	-0.196
AGCTGCCC	-0.165
AATCAGGA	-0.0462
ATAAGTGA	0.0161
GCCAATAC	-0.132
ATCACATG	-0.0846
ACAACGGA	0.0273
GACCCGCC	0.131
CATCCCGC	-0.00733
ACTCGCCG	-0.175
CAGACTCA	0.024

Sequence	PBM E-score
GTACACCA	0.0765
ATACGAGG	-0.0493
AGCCGCGA	0.0301
GGACGATA	-0.128
CGTCGCGC	-0.192
GATTCCGA	-0.0994
AAACTAGT	0.101
AAAGATTA	-0.00605
CGCTCTTC	-0.228
ATGAGCGC	-0.0149
GGACAGAA	0.0329
TCGCCTAA	-0.064
CCTAACAG	0.142
ACGTTATG	0.0376
GCTTATTA	0.0903
CATGGCTA	-0.23
AACTCGAA	0.0717
AGCTCATC	-0.261
CGCAGTAC	-0.0492
GACGGGCA	-0.194
CGTTCAAC	0.0372
CTTGCTGC	-0.163
GATGCAAC	-0.0942
CTAGATCA	-0.0664
ACCGTGAG	-0.0433

Sequence	PBM E-score
TTAAGGAA	0.0736
ACACGAAG	0.094
AGGAAAGG	-0.149
AGTTCCTA	0.00608
CTCCCAGA	-0.221
ACAGAAGC	-0.00364
GCCATGGC	-0.0165
GAGGGGGA	-0.176
ATACGAAC	-0.0244
AGCACCCA	-0.0894
ACTGATCG	-0.186
GCCTGGGA	-0.14
AAACTACA	0.0938
CATCGAAC	-0.2
ACGGCAGA	-0.0833
AACTTAGT	-0.0399
ATCATGTG	-0.0397
CGGGATAC	0.0285
ATAATGCG	0.0994
GGCTCCCC	0.0408
AATGAGAA	-0.103
CCTGTACC	-0.0655
